# Results reported in PubChem BioAssay (NCI).
# The source holds several records for some structures; these can differ, active in one and inactive in another.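 Note: values are percent growth. 100 is the growth of untreated cells, values between 100 and 0 indicate rising inhibition; between -100 and 0 indicates cell death.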 For part of its entries the source gives two or more results. The list is limited to them. Rule for the calls: active = growth percent below 10; inactive = the rest. The source may hold further records. This drug was run again and again over the years, at its own concentration, as given; each value is one run. Marks such as (2×) count equal records among those shown.
# System: M14 melanoma
# Experiment: NCI-60 one-dose screen, 48 h (100 = growth as untreated, 0 = no growth, -100 = all killed)
structure (smiles),measurement,setting,value
COc1cccc2c1C(=O)c1c(O)c3c(c(O)c1C2=O)C[C@@](O)(C(=O)CO)C[C@@H]3OC1CC(N)C(O)C(C)O1 (stereo not given in full),growth,"0.25 µM, runs of 2009","inactive: 46.2 (2×), 40.2 (2×), 46.7, 41.7, 38.8, 50.9, 47.4, 39.3, 42.3, 52.2, 52, 41.1, 36.8 (2×), 41.9, 47.9 (2×), 40.4, 40.1 (2×), 29.3, 31.3, 30.1 (2×), 46.8, 38.9, 44.9, 52.3, 57.8, 42.1, 42.4, 60.4, 33.1, 40.5, 36, 35.7, 29.6, 36.6, 35.2, 30.5, 24.8, 35.3, 41, 33.2, 36.9, 32.3, 40, 38.6, 21.4, 40.3, 45.9, 30.6, 66.3, 48.1, 45.5, 54, 38.2, 51.3, 44.2%"
same,growth,"0.25 µM, runs of 2010","inactive: 50.7, 55, 44.9, 49.3, 48.9, 51.5, 48.6, 53.2, 62, 57.6, 55.5, 56.9, 57.5, 51.9, 52.6 (2×), 48.2, 46.1, 43.6, 53.9, 62.7, 37, 40.3, 29.5, 38.9, 37.1, 33.9, 38.8, 39.7, 44.7, 49.9 (3×), 43.4, 36.8, 48, 53.7, 47.5, 50.2 (2×), 50.1, 42.8, 45.9, 46.3, 57.4, 54.2, 58.3, 53.3, 53.8, 50.8, 51.6, 54.1, 49.5, 53.4, 51.8, 52.2%"
same,growth,"0.25 µM, runs of 2011","inactive: 51.2 (2×), 47.4 (2×), 40.1, 61.1 (2×), 46, 58.9, 52.3, 53.4, 62 (2×), 51.6 (3×), 64.3, 54.1, 59.1, 57.3, 44.2, 56.5, 60.9, 56.6, 62.5, 60.8, 63.5, 62.7, 65.3, 57.4, 55.4, 39.2, 56.4, 60.4, 44 (2×), 46.4, 43.3, 48.6, 47, 44.8, 43.6, 43.9, 42.5, 43.7, 44.6, 53.7, 37.3, 56.9, 59.9, 48.8, 52.4, 46.2, 54, 51.7%"
same,growth,"0.25 µM, runs of 2012","inactive: 56.1, 41.3, 48.9, 42.5, 55.1, 56.2, 48.3, 59.3, 60, 45.1 (2×), 43.7, 36.8, 43.5, 46.5, 40.9, 47.3, 49.8, 57 (2×), 54.4, 50.4, 52.2 (2×), 52.4, 51.4, 48, 51.7, 44, 46.3, 29.4, 47.4, 59.2, 50.6, 66.4, 50 (2×), 54.7, 52.5, 68.6, 69.2, 61.9, 66.7, 63.4, 64.3, 63.7, 67.1, 69.5, 61.5, 69.6, 63.1, 66.3, 71.4, 46.1, 47.6, 46.2, 49.4, 44.6, 53.7, 49.5, 42.7 (2×), 45.9, 46.9, 42.2%"
same,growth,"0.25 µM, runs of 2013","inactive: 46.8, 40, 45.1, 45.7, 42.7, 47.4, 44.8, 60.3, 53, 59.2 (2×), 63, 60.2 (2×), 61, 56.5 (3×), 52.2, 55.6, 55.9, 59.5, 59.8, 49.2, 52, 53.7, 48.9 (2×), 55.7 (2×), 51.2 (2×), 62.1 (3×), 57.7, 49.8 (2×), 56.8, 61.6 (2×), 64.1, 58.2, 62.7, 59.7 (2×), 56.2 (2×), 58.1, 56.4, 58.6, 56.9, 61.1, 55.4, 66.7, 62.5, 65.8, 72.3, 63.1, 58, 40.8, 53.6, 47.2, 54.5, 50.6, 33.6 (2×), 40.6, 23.6, 21, 23.7, 30.2, 23.3%"
same,growth,"0.25 µM, runs of 2014","inactive: 41.2, 45, 26.1, 24.6, 37.9, 29.7, 24.2, 31.2 (2×), 37.4 (2×), 29.4, 25.1, 40.2, 33.7 (2×), 24.3, 42.7 (2×), 26.2, 37, 34.1, 37.7, 40.6, 39.5 (2×), 37.8 (2×), 49.4, 45.1, 43.5, 39.4, 42 (2×), 46.3, 41.7, 41.9, 47.4, 33.2, 32.5 (2×), 44.9, 43.7, 29.9, 31.4, 46.5, 34.6, 31.1, 35.7, 30.2, 38.6 (2×), 36.8, 31.7, 42.3, 33, 45.4, 37.1, 45.5, 40.5, 43.9, 37.5 (2×), 42.5, 40, 45.6, 40.3, 41.3, 47.9, 40.8, 44.1, 33.9%"
same,growth,"0.25 µM, runs of 2015","inactive: 42.5 (2×), 37.4, 40.6, 38 (3×), 48.8, 45.9, 44.6, 38.2 (2×), 34.9, 40.1, 31.7, 37.5 (2×), 48.7, 30.6, 28.4 (2×), 32.3, 32.4 (2×), 26.6, 39.4, 37.3, 47.5, 31.1 (2×), 27, 24.8, 34 (2×), 37.9, 38.8, 46 (2×), 46.7, 35.2, 37.6, 37.8, 41.7, 34.1 (2×), 27.6, 32, 28.5, 22.6, 32.9, 28.6, 26.7, 24.2, 28.2, 34.2, 49.6 (2×), 33, 34.4, 42, 44.2, 45.2, 51.6, 40.3, 41.3, 40.4, 33.7, 33.5, 25.9, 42.6, 40.5, 37.7, 39.5, 49.9, 38.9, 53, 54%"
same,growth,"0.25 µM, runs of 2016","inactive: 45.4, 52 (3×), 41.6, 47.1, 47.4 (2×), 57.1, 36.9 (2×), 37.7, 44.8 (2×), 36, 44.6, 32.9, 41 (2×), 29.2, 33.7, 28.6, 34.4, 27.7, 30.4, 33.4, 32.2, 25.4, 28.5, 37.8, 30.8, 35.2, 31.6, 37.6, 36.5, 41.3, 40.8, 40.3, 38, 31.7, 43.3, 44.2, 50.2 (2×), 46, 44.9, 49.6, 58.2, 43.4, 45, 42.5, 44.7 (2×), 38.5, 46.2, 42.8, 47.3, 47.2, 53 (2×), 46.7, 51.3, 55.1, 58.6, 45.7, 56.5, 55.3, 53.8, 54.9, 51, 56, 59.4, 60.4, 54.3, 48.7, 42.2, 46.5, 41.2, 42.3, 41.7, 49.2%"
same,growth,"0.25 µM, runs of 2017","inactive: 57, 58.3, 51.4, 55.8, 46.7, 49.8 (3×), 37.2, 38.8 (2×), 46, 34.2, 41.8 (2×), 36.1, 29.9, 36.9, 38.6, 36.8, 40, 32.5 (2×), 35.2 (2×), 33, 31.7, 40.9, 34, 33.7, 27.3, 41.9, 49.3, 50, 45.1, 40.8, 44, 45.4, 48.6, 52.5, 44.3, 38.1, 47.6, 37.8, 42.6 (2×), 44.7, 40.2, 37.6 (2×), 40.5, 39.2, 44.8, 46.2, 43.9, 51.3, 51.8, 52.8, 45.9, 31, 31.5, 42, 26.7, 36.4, 31.4, 32.6, 34.9, 33.2, 35.3 (2×), 47, 45, 34.1, 39.7, 27.7, 25.2%"
same,growth,"0.25 µM, runs of 2018","inactive: 40.7, 43.6 (2×), 49.9, 50, 42.8, 39.3, 34.4, 39.2, 46.8, 36.7, 36, 40.4, 35.7 (2×), 33.6 (2×), 56.6, 37, 53.2, 52.4, 46.1, 45.2 (2×), 40.6, 41.7, 37.3, 38.5 (2×), 40.2, 45.8, 47, 50.4, 46.5, 43.4, 38.3 (2×), 39.4, 38.1, 37.4, 41.8, 38.9, 22.4, 27.5%"
same,growth,"0.25 µM, runs of 2019","inactive: 36.5, 31.6, 27.1, 33.4, 33.6, 26.9 (2×), 29, 28.7, 25.8, 33.7 (2×), 31.5, 32.5, 30.5, 32, 24.6, 38.1, 41.8, 34.3, 41.7, 47, 33.1, 41.2, 40.5, 37.3, 34.2, 31.2, 32.3, 40.1, 37.9 (2×), 35.7, 32.2, 34, 38, 41.1, 78.3, 76.2, 37.8, 40.2, 34.1, 28.2, 27.2, 29.5%"
same,growth,"0.25 µM, runs of 2020","inactive: 31.2, 22.4, 42.5, 40.5, 40.1 (2×), 42.1 (2×), 40, 34.7, 38.2, 47.3, 43.3, 39.3, 53.6, 39.7, 41, 53, 33.4, 40.8, 41.2, 42.8%"
same,growth,"0.25 µM, runs of 2021","inactive: 42.1, 50.8 (2×), 39.9, 32.4, 21.8, 23.4, 41.7, 44.9, 40.3, 41.8 (2×), 41.1 (2×), 45.9, 44, 41.6, 44.7, 32.2, 32.5 (3×), 28.5 (2×), 31.6, 36.7, 34.3, 37.5, 40.6, 28.2, 41.3, 45, 54.9, 59.5, 27.6, 29.2, 30.4, 33.5, 28.4, 19.9, 24.4, 18.5, 30.8, 30.3%"
same,growth,"0.25 µM, runs of 2022","active: 6.8%, -2.3%, -3.81% and inactive: 42.4, 27.2, 17.3, 30.2, 37.9, 49.3, 38.6, 38, 52.8, 43.9, 24.6, 25.9, 20.1, 50, 35.2, 52, 60.2, 78.9, 38.8, 32.9, 33.1, 24.9%"
same,growth,"25 µM, runs of 1991","active: -59.2, -88.4, -99.5, -83.8, -100, -91.5, -87.9, -79.4, -95.6, -96.9, -84.8, -95.8, -96.7 (2×), -97.8, -67.9, -96.8, -63.8, -97.6%"
